Test results from the supplement of paper PMC10338343.
± gives the standard deviation. In all, about 6,600 sequences were measured (“pre-steady-state target cleavage rate”: median about 0.07, highest 2% from about 0.72 on). The list shows a part of the results, in another mix than the full data.

The sequences below were run on MIWI (PIWIL1) piRISC loaded with Kctd7 piRNA (30 nt) (assay: pre-steady-state target cleavage rate (min^-1); MIWI and MILI are mouse PIWI proteins and EfPiwi is from a freshwater sponge; tags in brackets are library labels; higher = faster piRNA-guided slicing of the target). Conditions: guide: Kctd7 piRNA 5'p-UGUUAAUCUCUCAGAGAAGGUGACAGUGAU; auxiliary factor: 500 nM mouse GTSF1.
In short: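 At 33 °C in HEPES–potassium acetate buffer, a transcribed, DNA-blocked target RNA library […] was exposed for 0–8 or 0–960 min to 1 nM active affinity-purified piRISC carrying a single synthetic guide, with or without 500 nM GTSF1 partner protein. Uncleaved targets were sequenced and normalised to depth and to weakly complementary targets. With three trials pooled and k3 capped at 0.0001 min^-1, a burst-and-steady-state fit produced the pre-steady-state cleavage rate.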
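Further: 1 nM active piRISC with 0.1 nM target library at 33 °C single turnover.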

| Sequence | pre-steady-state target cleavage rate |
| --- | --- |
| UAGUGAGUCACCUUCUCUGAGAGCAUUAACA | 0.345 ± 0.033 |
| UAGUGACUCACCUUCUCUGAGAGAUUAACU [g2:g23:cont:t1U] | 0.305 ± 0.034 |
| UACCUGUCACCUUCUCUGAGAGAUUAACA | 0.773 ± 0.051 |
| UAGUGACUCACCUUCUCUGAGAGUUAAACA | 0.126 ± 0.016 |
| UUCACUGUCACCUUCUGUGAGAGAAUAACA | 0.166 ± 0.028 |
| UACACUGUCACUUUCUCUGAGAGAUUAACA | 0.725 ± 0.025 |
| UAGACUGACACCUUCUCUGAGAGAUAAACA | 0.3 ± 0.03 |
| UAGACUGUCACCUCUCUCUGAGAGAUUAACA | 0.409 ± 0.044 |
| UAGUCUGUCACCUUCUCUGAGAGAAUUACA | 0.278 ± 0.063 |
| AUCAGUGUCACCUUCUCUGAGUGAUUAACA | 0.0468 ± 0.011 |
| UUCACUGUCACCUUCACAGAGAGAUUAACA | 0.0684 ± 0.012 |
| UUCACUGUCACCUUCUCUGAGUCUUUAUGA | 0.00676 ± 0.0031 |
| UAGUGACUCACCUUCUCUGAGAAAUUAACA | 0.22 ± 0.031 |
| UAGUGAGUCACCUUCUCUGUGAGAUAAACA | 0.119 ± 0.013 |
| UUCACUGUCACCUUCUCUGAGAGUUUAAGA | 0.463 ± 0.12 |
| AUCACUGUCACCUUCUCUGAGAGUAUUAACA | 0.557 ± 0.044 |
| UAGUGACUCACCUUCUCUGAGAGAUUAACG [g2:g23:cont:t1G] | 0.403 ± 0.033 |
| UAGUCUGUCACCUUCAGUGAGAGAUUAACA | 0.045 ± 0.0062 |
| UAGUGAGUCACCUUCUCUGACAGAUUAAGA | 0.0174 ± 0.005 |
| UUCUCUGUCACCUUCUCUGAGAGAAUAACA | 0.311 ± 0.046 |
| UAGUCUGCCACCUUCUCUGAGAGAUUAACA | 0.631 ± 0.028 |
| UAGUGACAGUCCUUCACUGAGUGAUUAACA | 0.00526 ± 0.0028 |
| UACACUGUCACCUUCGCUGAGAGAUUAACA | 0.44 ± 0.042 |
| UAGUGACAGACCUUCACUGAGAGAUUAACA | 0.0809 ± 0.012 |

| Sequence | pre-steady-state target cleavage rate |
| --- | --- |
| UAGUGACAGACCUUCUCUGAGAGAUUAAGA | 0.0708 ± 0.014 |
| UAGACACUCACCUUCUCUGAGAGAUUUUGA | 0.0632 ± 0.014 |
| UUCACUGUCACCUUCUCUGAGAGUUAUUGA | 0.378 ± 0.089 |
| UAGACUGUCACCAAGUCUGAGAGAUUAAGA | 0.00633 ± 0.0032 |
| UAGUGUGUCACCUUCUGUCAGAGAUUAACA | 0.0146 ± 0.0045 |
| UUCACUGUCACCUUCUGAGAGAGAUUAACA | 0.0751 ± 0.014 |
| UAGUGAGUCACCUAUCUCUGAGAGAUUAACA | 0.365 ± 0.032 |
| UAGUGAGUCAGCUUCUCUGAGAGAUUAUGA | 0.0271 ± 0.0081 |
| AUCACUGUCACCUUCUCACAGAGAUUAUGA | 0.00581 ± 0.004 |
| UUCAGUGUCUCCUUCUCUGAGAGAUUAACA | 0.501 ± 0.033 |
| UAGUGACAGUCCUACUCUGAGAGAUUAACA | 0.00907 ± 0.0022 |
| UACAGUGUCACCUUCUGUGAGAGAUUAACA | 0.662 ± 0.028 |
| AUCACUGUCACCUUCUCUGAGAGAUUAAGCA | 0.279 ± 0.032 |
| UAGACUGGUCACCUUCUCUGAGAGAUUAACA | 0.716 ± 0.047 |
| UACACUGUCAGCUUCUCUGAGAGAAUAACA | 0.305 ± 0.058 |
| UAGUCUGACACCUUCUCUGAGUGAUUAACA | 0.0171 ± 0.0018 |
| UACACUGUCACGUUCUCUCAGAGAUUAACA | 0.0587 ± 0.0073 |
| UAGUGACAGUGGUUCUCUGAGAGAUUAACG [g2:g18:cont:t1G] | < 0.0001 |
| UUCACUGUCACCUUCUCUGUGAGAUUAAGA | 0.0667 ± 0.015 |
| UAGUGACUCACCUUCUCUGUGAGAUAAACA | 0.0613 ± 0.01 |
| UAGUGAGUCAGCUUCUCUGAGAGAUUAAGA | 0.149 ± 0.029 |
| UAGUGACUCACGUUCUCUGAGAGAUUAACA | 0.398 ± 0.03 |
| UAGUGACAGUCCUUCUCUGAGAGAUCUAACA | 0.00933 ± 0.0031 |
| UAGACUGUCACCUUCUCUGAGAGAUUACA | 0.286 ± 0.047 |

| Sequence | pre-steady-state target cleavage rate |
| --- | --- |
| UUCACUGUCACCUUCUCAGAGACAUUAACA | 0.138 ± 0.019 |
| UUCACUGACACCUUCUCUGAGACAUUAACA | 0.172 ± 0.027 |
| UAGUGACAGACCAUCUCUGAGACAUUAACA | 0.00493 ± 0.0025 |
| UAGUGAGUCACCUUCUCUGAGAGAUUACA | 0.157 ± 0.024 |
| UAGUGUGUCACCUUCUCUGAGAGAUAUUGA | 0.039 ± 0.014 |
| UAGUGACUCACCUUCUCUGUCUGAUUAACA | < 0.0001 |
| UACACUGUCACCUUCUCUGAGACAAUAACA | 0.0245 ± 0.0058 |
| UUCACUGUGUGCUUCUCUGAGAGAUUAACA | 0.0554 ± 0.0083 |
| UAGUGUGUCACCUUGUCUCAGAGAUUAACA | 0.0235 ± 0.0036 |
| AUCACUGUGCACCUUCUCUGAGAGAUUAACA | 0.607 ± 0.054 |
| UAGUGUGUCACCUUCUCUGAGAGAUUAAGA | 0.237 ± 0.037 |
| AUCACUGUCACCUUCUCUGUGACAUUAACA | 0.0488 ± 0.0092 |
| UAGUCUGUCAUCCUUCUCUGAGAGAUUAACA | 0.292 ± 0.022 |
| UAGUCUCUCACCUUCUCUGAGAGUUUAACA | 0.308 ± 0.043 |
| UAGUGACACACCUUCUCCGAGAGAUUAACA | 0.205 ± 0.047 |
| UAGUGACUCACCUUCUCUGAGACAUAAACA | 0.0406 ± 0.0093 |
| UAGUGACACACCUUCUGUGAGAGAUUAUCA | 0.018 ± 0.0057 |
| UAGUCUGAGACCUUCUCUGAGAGAUUAACA | 0.437 ± 0.027 |
| UACACUGUCAGCUUCUCUGACAGAUUAACA | 0.0354 ± 0.0092 |
| UAGUGAGUCACCUUCUCUGAGAGAUAAACA | 0.418 ± 0.051 |
| UAGUGAGUCACCUUCAGAGAGAGAUUAACA | 0.00682 ± 0.0046 |
| UACACAGUCACCUUCUCUGAGAGAUUAUCA | 0.149 ± 0.026 |
| UAGUCUGUCACCUUCUCUGAGAGAUUGAACA | 0.27 ± 0.036 |
